# From PubChem BioAssay AID602310 (National Center for Advancing Translational Sciences (NCATS), 2012)
# Hit rate of the full screen: of about 410,000 compounds, about 310 (0.076%) were called active. Not shown: some 2% with an inconclusive outcome. Calls come from the whole dose curve; as a rule, active = well fitted curve in the direction sought with a large enough effect; inconclusive = small, poorly fitted or top-dose-only effect; inactive = flat fitted curve, though single readings scatter. Only a part is listed here, and it is no random draw. Some structures have more than one record in an assay (separate samples or runs), and their calls can disagree.
# Target: DNA dC->dU-editing enzyme APOBEC-3G (Homo sapiens) (UniProt Q9HC16)
# Experiment: qHTS for Inhibitors of Vif-A3G Interactions: qHTS; note: nearly all actives have a fitted effect of over 60% in size;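 for activity, negative = active: hits raise eYFP signal because A3G escapes Vif-driven loss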
# Details: HeLa A3G-eYFP + Vif (tagged APOBEC3G with the HIV-1 protein that degrades it), YFP fluorescence, overnight; series mostly up to 46.1 µM; activity, negative = active: at the top concentration
# Summary of the method: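 Read-out is eYFP fluorescence (Ex 488/Em 500-530) from Vif-expressing HeLa A3G-eYFP cells; more signal means A3G escaped Vif-mediated degradation. Cells plated overnight, compound pinned in, incubated overnight at 37 deg C.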
# % is set by controls: 0 for no effect and ±100 for the full control effect; potency is the fitted concentration of half-maximal effect.
# Chain of UniProt Q9HC16 (Q9HC16 whole entry, looked up): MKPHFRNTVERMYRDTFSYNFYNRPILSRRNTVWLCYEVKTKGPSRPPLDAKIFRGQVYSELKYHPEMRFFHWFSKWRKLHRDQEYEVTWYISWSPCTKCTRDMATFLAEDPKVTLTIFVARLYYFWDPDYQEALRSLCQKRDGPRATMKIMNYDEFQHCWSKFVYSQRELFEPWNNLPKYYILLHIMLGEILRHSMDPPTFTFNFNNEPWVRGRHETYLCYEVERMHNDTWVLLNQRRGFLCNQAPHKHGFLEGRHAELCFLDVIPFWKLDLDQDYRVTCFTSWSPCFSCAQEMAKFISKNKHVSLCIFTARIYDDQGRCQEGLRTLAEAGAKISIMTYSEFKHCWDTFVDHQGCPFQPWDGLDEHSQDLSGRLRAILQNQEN
Structure (SMILES),"activity, negative = active",Potency
CC1CCN(C(=O)C(C)Sc2nc(-c3ccccc3)cc(C(F)(F)F)n2)CC1 (centres undefined),inactive: -4.84%,
C[C@@H]1O[C@@H](O[C@@H]2C(=O)c3c(O)cc(O)cc3O[C@H]2c2ccc(O)c(O)c2)[C@H](O)[C@H](O)[C@H]1O,,active: 11.2 µM
OCC1OC(n2cnc3c(=S)nc[nH]c32)C(O)C1O (centres undefined),inactive: -9%,
COc1ccc(NC(=O)c2oc3ccc(S(=O)(=O)N4CCOCC4)cc3c2C)cc1,inactive: -6.44%,
O=[N+]([O-])c1cc(O)c2ncccc2c1,,active: 11.2 µM
O=C(c1ccc(OCCN2CCCCC2)cc1)c1c(-c2ccc(O)cc2)sc2cc(O)ccc12,inactive: -24.5%,
C=CC[C@@H](CC(=O)N[C@@H](CO)Cc1ccccc1)C(=O)NC[C@@H](OC(=O)[C@@H](CC=C)Cc1ccc(F)cc1)c1ccccc1,inactive: -10.3%,
O=C(O)CCn1cc(/C=C\C(=O)c2ccc(Cl)cc2)c(-c2cccc(Br)c2)n1,inactive: -18.3%,
Cn1cc(S(=O)(=O)N2CCCC2)cc1C(=O)N1CCN(c2cccc(Cl)c2)CC1,inactive: -22.3%,
CC(C)COc1ccc(C(=O)N/C(=C\c2cccc([N+](=O)[O-])c2)C(=O)O)cc1,inactive: 0.0447%,
CC(C)n1cc(/C=C/c2cc[n+](C)cc2)c2ccccc21,,active: 3.98 µM
CCN1CCN(Cc2ccc(NC(=O)c3cc(NC(=O)C(=O)c4c[nH]c5ccccc45)cc(OC)c3)cc2C(F)(F)F)CC1,inactive: -20.5%,
CCc1ccccc1NC(=O)Cn1nnc(C(=O)NCc2cccc(OC)c2)c1N,inactive: -25.6%,
COc1cccc(Cn2c3ccc(NC(=O)CCc4ccc(F)cc4)cc3c(=O)n2C)c1,,active: 3.98 µM
Cc1ccc(C)c(OCCn2cc(/C=C(\C#N)C(=O)NCC3CCCO3)c3ccccc32)c1 (centres undefined),inactive: -0.132%,
COc1cc(N2CCCC2)c(OC)cc1/C=C(/C#N)c1ccc(F)cc1,,active: 10 µM
COC(=O)c1ccccc1NC(=O)Cn1nnc(-c2ccc(OC)cc2)n1,inactive: -22.6%,
COC(C[C@@H]1O[C@@H]1C(=O)[C@@H](C)OCc1ccccc1)OC,inactive: 0.814%,
CCOc1cccc(CNc2ccc(O)cc2)c1OCc1ccccc1Cl,inactive: -17.6%,
CCN(CC)c1ccc(/C=C/c2cccc[n+]2C)c(OC)c1,,active: 7.94 µM
COC(C[C@@H]1O[C@@H]1C(=O)[C@H](C)OCc1ccccc1)OC,inactive: 1.13%,
Cc1ccc(N=C2NC(=O)/C(=C\c3cccs3)S2)cc1C,inactive: -27.4%,
COc1ccc(CNC(=O)c2cc3cc(OC)ccc3oc2=O)cc1,inactive: -15.9%,
N#C/C(=C/c1ccco1)c1nc2ccccc2s1,inactive: -27.2%,

Structure (SMILES),"activity, negative = active",Potency
CC(=O)Nc1ccc2nc(NC(=O)c3ccc([N+](=O)[O-])o3)sc2c1,,active: 12.6 µM
N#C/C(=C(/O)COC(=O)c1ccc2c(c1)OCCO2)c1nc2ccccc2[nH]1,inactive: -25.2%,
COc1cccc(/C=N/NC(=O)c2[nH]nc3c2CCc2ccccc2-3)c1O,,active: 8.91 µM
O=C(O)c1ccc(Cn2cnc3cccnc32)cc1,inactive: -0.528%,
COc1ccc(/C=C/c2ccc3ccccc3n2)c(OC)c1,inactive: -26.2%,
C[C@@H]1CN([C@@H](C)CO)S(=O)(=O)c2ccc(Br)cc2O[C@H]1CN(C)Cc1ccccn1,inactive: -9.83%,
COc1ccccc1CNS(=O)(=O)c1ccc(-c2cnc(C3CC3)o2)cc1,inactive: -15.1%,
C(=C\c1ccc2ccccc2n1)/c1ccccc1,inactive: 4.24%,
Cc1ccc(CS(=O)(=O)c2ncc(Cl)c(C(=O)Nc3nnc(C(C)C)s3)n2)cc1,inactive: -16.3%,
CC(=O)c1ccc(NS(=O)(=O)c2cc(-c3cnc(C4CC4)o3)ccc2C)cc1,inactive: -23.2%,
COc1ccc(-c2ccoc2)cc1[C@H]1[C@H]2C=CC[C@@H](C)[C@@H]2C(=O)N1Cc1ccccc1,inactive: -15.8%,
Cc1nnc(N2CCCC(C(=O)Nc3cc(F)ccc3F)C2)c2nn(-c3ccccc3)c(C)c12 (centres undefined),inactive: 3.14%,
COC(C[C@H]1O[C@H]1C(=O)[C@H](C)OCc1ccccc1)OC,inactive: -1.83%,
COCCCn1c(=O)/c(=C/c2ccccc2OC(C)C)s/c1=C(\C#N)C(=O)Nc1ccc(C(=O)O)cc1,inactive: -2.46%,
CCOC(=O)/C=c1/s/c(=C/c2ccc3cc(OC)ccc3c2)c(=O)n1CC(=O)NCC1CCCO1 (centres undefined),inactive: -0.329%,
O=C(Nc1ccc(N2CCOCC2)cc1)c1cccc2ccccc12,,active: 10 µM
COc1ccc(N/C=C/C(=O)c2sc(-c3ccccc3)nc2C)cc1,,active: 11.2 µM
CC1CC(Nc2ccccc2)c2ccccc2N1C(=O)c1cccnc1 (centres undefined),inactive: -31.5%,
CCc1ccc(-c2cc(C)no2)cc1S(=O)(=O)NCc1ccco1,inactive: -14.3%,
C=CC[C@@H](CC(=O)N[C@H](CO)Cc1ccccc1)C(=O)NC[C@@H](OC(=O)[C@@H](CC=C)Cc1ccc(F)cc1)c1ccccc1,inactive: 2.65%,
COc1cccc2c1C(=O)/C(=C/c1ccc(N(C)C)cc1)C2,inactive: 0.114%,
O=C(N/N=C/C(Br)=C\c1ccccc1)c1n[nH]c2c1CCC2,inactive: -32%,
O=C(C[C@H]1C/C=C\C[C@H](NC(=O)OCC2c3ccccc3-c3ccccc32)C(=O)O[C@H](c2ccccc2)CNC1=O)N[C@H](CO)Cc1ccccc1,inactive: -12.7%,
Oc1ccc(/C=N\Nc2nncc(-c3ccccc3)n2)cc1,,active: 11.2 µM

Structure (SMILES),"activity, negative = active",Potency
CCOc1ccccc1CNC(=O)C1CCN(c2nnc(C)c3c(C)n(-c4ccc(C)cc4)nc23)CC1,inactive: 0.0846%,
COc1cc(-c2noc(C)c2C#Cc2ccsc2)cc(OC)c1OC,inactive: -30.8%,
Cc1ccc(CNC(=O)CCS(=O)(=O)c2ccc3c(c2)CC(C)N3C(=O)C2CC2)cc1 (centres undefined),inactive: -19.5%,
O=S(=O)(/C(=C/c1ccc(C(F)(F)F)cc1)c1nc2ccccc2[nH]1)c1ccccc1,inactive: -22.2%,
COC(C[C@H]1O[C@H]1C(=O)[C@@H](C)OCc1ccccc1)OC,inactive: 4.58%,
CC(C)NC(=O)/C(C#N)=C\c1ccc(N(C)C)o1,inactive: -18.2%,
CC(C)CC[n+]1ccccc1/C=C/c1ccc(N(C)C)cc1,,active: 10 µM
OCC1OC(n2cnc3c(NCc4ccco4)ncnc32)C(O)C1O (centres undefined),inactive: -27%,
COC(C/C=C\C(=O)[C@H](C)OCc1ccccc1)OC,inactive: -4.65%,
CCCN1CCC(=O)N(CCSc2ccc(OC)cc2)CC1,inactive: -29.9%,
CCN(CC)c1ccc2cc(-c3nc(-c4cc5ccccc5oc4=O)cs3)c(=O)oc2c1,,active: 7.08 µM
CN(C)C(=O)c1cccc(-c2cccc(-c3nc(C(=O)NCc4ccccc4)cc4c3[C@H](CCO)N(S(=O)C(C)(C)C)C4)c2)c1 (some centres undefined),inactive: -5.93%,
O=C(C[n+]1cc(Br)cc2ccccc21)c1ccc(Br)cc1,inactive: -10.8%,
Cc1cc(=O)n2c(C(=O)Nc3ccc(C)c(C)c3)c(C(=O)Nc3ccccc3)sc2n1,inactive: -27.5%,
COc1ccc2[nH]c3c(NCc4ccco4)ncnc3c2c1,inactive: -15.1%,
CCCCN(C)CC(O)Cn1cc(/C=C/C(=O)c2ccc(C)cc2)c2ccccc21 (centres undefined),inactive: -22.5%,
C=C[C@@H]1c2cc(C)ccc2N(S(=O)(=O)c2ccc(C)cc2)[C@H](c2ccc(OC(C)=O)cc2)C1(C#N)C#N,inactive: -7.2%,
Oc1sc(C=Nc2ccccc2)c2ccccc12,,active: 11.2 µM
CN(C)c1ccc(/C=C/c2nc3ccccc3s2)cc1,inactive: 2.71%,
COc1ccc(CN2[C@@H](CC(C)=O)c3ccc(/C=C/C(C)=O)cc3S2(=O)=O)cc1,inactive: -29.2%,
CCC(C)Sc1ccc([C@@H]2[C@@H]3C(=O)N(CC)C(=O)[C@@H]3[C@]3(C(=O)OC)CCCCN23)cc1 (some centres undefined),inactive: 4.31%,
COc1ccccc1/C=C/C=N/n1c(-c2ccc(Cl)cc2)n[nH]c1=S,inactive: -15.2%,
COc1ccc(N2CCN(C(=O)c3ccc(CS(=O)c4cccc(C)c4)o3)CC2)cc1 (centres undefined),inactive: -27.2%,
CCNc1ccc(Br)cc(C(=O)/C=C/c2ccccc2Cl)c1=O,,active: 10 µM

Structure (SMILES),"activity, negative = active",Potency
COc1cc(-c2c(-c3ccc4c(c3)OCO4)noc2C)ccc1F,inactive: -15.6%,
CCSc1nnc(-c2sc3nnc(-c4ccccc4)c(-c4ccccc4)c3c2N)o1,,active: 3.16 µM
COc1ccccc1C=Cc1ccnc2ccccc12,inactive: -7.48%,
Cc1cc(=S)[nH]c2ccccc12,inactive: -3.41%,
COc1ccc(-c2cc(C(F)(F)F)nc(S(C)(=O)=O)n2)cc1,inactive: -29.4%,
Oc1ccc(NCc2ccccc2OCc2ccccc2F)cc1,inactive: -32%,
O=C(C[C@H]1C/C=C\CC[C@H](Cc2ccc(F)cc2)C(=O)O[C@@H](c2ccccc2)CNC1=O)N[C@@H](CO)Cc1ccccc1,inactive: -29.6%,
COC1=CC(=O)CC(C)C12Oc1c(Cl)c(OC)cc(OC)c1C2=O (centres undefined),inactive: -29.8%,
CCCN(CCC)c1nc2c(C)cccn2c(=O)c1/C=C1/SC(=S)N(Cc2ccco2)C1=O,,active: 3.16 µM
COc1ccc(-c2cn(Cc3ccc(C(=O)c4ccccc4)cc3)nn2)cc1,inactive: -24.5%,
CC1CC(C)(C)Nc2ccc(OC(=O)c3ccco3)cc21 (centres undefined),,active: 22.4 µM
CCOc1cc(/C=C2/COc3ccccc3C2=O)ccc1OCC(=O)N(C)C,inactive: -1.62%,
O=C(C[C@H]1C/C=C\CC[C@@H](Cc2ccc(F)cc2)C(=O)O[C@@H](c2ccccc2)CNC1=O)N[C@@H](CO)Cc1ccccc1,inactive: 1.21%,
CCN(CC)c1ccc(/C=C(\C#N)c2ccccn2)cc1,,active: 10 µM
CCOC(=O)c1c(-c2ccc(C)cc2)csc1NC(=O)/C(C#N)=C/c1ccc(O)c(OC)c1,,active: 10 µM
COc1ccc(/C=N/NC(=O)c2cccnc2)cc1CSc1ccccn1,,active: 7.08 µM
COc1cc(/C=C2\CCc3ccccc3C2=O)cc(OC)c1OC,inactive: -14.8%,
Cc1ccccc1NC(=O)COC(=O)c1ccc(S(C)(=O)=O)c([N+](=O)[O-])c1,inactive: -21.3%,
COc1ccc(S(=O)Cc2ccc(C(=O)N3CCN(c4cccc(C)c4C)CC3)o2)cc1 (centres undefined),inactive: 2.46%,
COc1cc(OC)c(OC)cc1/C=C/c1ccnc2ccccc12,inactive: -7.09%,
COc1ccc(-n2nc3c(N4CCC(C(=O)N5CCC(C)CC5)CC4)nnc(C)c3c2C)cc1,inactive: -4.34%,
CCOc1ccccc1NC(=O)COC(=O)CC(C)(C)CC1=NS(=O)(=O)c2ccccc2N1,inactive: -22.6%,
